PubChem BioAssay AID493005 (National Center for Advancing Translational Sciences (NCATS), 2010)
Out of some 340,000 compounds screened, fewer than 10 were called active. Inconclusive results, whose numbers are uncertain, are shown with a selection of clear calls. Calls follow the shape of the dose curve; as a rule, active = well fitted inhibition curve with a large enough effect in the main read-out, with a control signal flat (not every such curve was filed as active); inconclusive = small, poorly fitted or top-dose-only effect, or effect the other way, or a change in a side signal; inactive = no such curve, though single readings can be large or run the other way. Where the call is inconclusive, the potency comes from a doubtful curve fit. “Side channel” marks fits to a control or component signal instead of the main read-out.
Potency is read from the fitted curve at half-maximal effect; tags tell the direction and shape of the fitted curve or compound fluorescence and quenching.

Each compound was assayed against Tumor susceptibility gene 101 protein (Homo sapiens) (UniProt Q99816) (assay: qHTS Assay for Iinhibitors of HIV-1 Budding by Blocking the Interaction of PTAP/TSG101). Conditions: Fluorescence polarization, FITC-PTAP peptide / Tsg101 binding; series mostly up to 115 µM.
Sequence of UniProt Q99816 (Q99816 whole entry, looked up, the tested form may be a part): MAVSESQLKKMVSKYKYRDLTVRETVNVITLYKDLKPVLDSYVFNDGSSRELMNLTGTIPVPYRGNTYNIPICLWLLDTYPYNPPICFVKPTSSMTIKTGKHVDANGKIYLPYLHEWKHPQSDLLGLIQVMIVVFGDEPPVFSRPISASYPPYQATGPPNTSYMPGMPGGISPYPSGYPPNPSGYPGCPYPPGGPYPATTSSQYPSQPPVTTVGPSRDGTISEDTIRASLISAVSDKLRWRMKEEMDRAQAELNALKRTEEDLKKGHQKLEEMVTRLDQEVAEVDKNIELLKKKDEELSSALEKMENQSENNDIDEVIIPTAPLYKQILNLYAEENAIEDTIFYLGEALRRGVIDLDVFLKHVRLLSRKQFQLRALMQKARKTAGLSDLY
In short: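 Tsg101 binding domain (10 uM final) was mixed with compound and a FITC-labeled PTAP peptide (50 nM final) in HEPES pH 7.5 buffer with NaCl, Tween 20, EDTA and TCEP; fluorescence polarization was read after 20 min at r.t.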
COc1ccc(N=c2oc3cc(O)ccc3cc2C(=O)NCC2CCCO2)c(OC)c1 (stereo not drawn) was tested, and the Potency was inconclusive: 79.4 µM [fluorescent, side channel, partial curve]. For Cc1cccc(OCCCn2ccnc2)c1, the Potency was “inactive”. For Cc1cc(O)c(CN(C)C)c2c1C(=O)/C(=C/c1ccco1)O2, the Potency was inconclusive: 56.2 µM [fluorescent, side channel, partial curve, poor fit]. In the case of OC(COCC(F)(F)C(F)(F)C(F)(F)C(F)F)Cn1c2ccccc2c2ccccc21 (stereo not drawn), the Potency is reported as inconclusive: 31.6 µM [quencher, side channel, partial curve, poor fit]. In the case of O=C1C=CCC(/C=C/c2ccccc2)O1 (stereo not drawn), the Potency is reported as “inactive”. In the case of CC1=Nc2ccccc2/C1=C/c1c(N)n2c(S(=O)(=O)CC(C)C)nsc2nc1=O, the Potency is reported as “inactive”. CCCCn1nnc(NC(=O)C(c2ccccc2)c2ccccc2)n1 was tested, and the Potency was “inactive”. For Clc1ccc(-c2cn3nc4c(nc3n2)CCCC4)cc1, the Potency was inconclusive: 56.2 µM [fluorescent, side channel, partial curve, poor fit]. In the case of Cc1cc(C(=O)COC(=O)c2ccc[nH]c2=O)c(C)n1C1CC1, the Potency is reported as “inactive”. With CCc1nc(Nc2ccc3nccnc3c2)c2oc3ccccc3c2n1 the Potency was inconclusive: 35.5 µM [fluorescent, side channel, full curve, poor fit]. In the case of O=C1CC(c2ccccc2)=C(c2ccccc2)C1c1ccccc1 (stereo not drawn), the Potency is reported as “inactive”. In the case of COC(=O)\C(C(C)=O)=C(/C=C/C=C/C=C/N(C)C)N(C)C, the Potency is reported as inconclusive: 56.2 µM [fluorescent, side channel, partial curve, poor fit]. Cc1cc[n+](-c2[nH]c(=O)sc2/C=N/NC([S-])=Nc2ccccc2)cc1C was tested, and the Potency was inconclusive: 56.2 µM [fluorescent, side channel, partial curve, poor fit]. With CC(=O)n1c(C=Nc2ccc(Cl)cc2)c(O)c2ccccc21 the Potency was inconclusive: 15.8 µM [fluorescent, full curve]. In the case of Cc1cccc(N2C(=O)c3cccc4c(N)ccc(c34)C2=O)c1, the Potency is reported as inconclusive: 50.1 µM [fluorescent, side channel, partial curve]. In the case of O=C(O)Cc1ccc(NC(=O)C(c2ccccc2)c2ccccc2)cc1, the Potency is reported as “inactive”. With CC(=O)Oc1oc(-c2ccccc2)nc1C=Nc1ccc(N(C)C)cc1 the Potency was inconclusive: 50.1 µM [fluorescent, side channel, partial curve, poor fit]. For COc1ccc(N2CCC(CNC(=S)Nc3ccc(C)cc3C)C2)cc1 (stereo not drawn), the Potency was “inactive”.
